For this experiment, the system named is NCI-H1944. As to the kind of experiment: normalised cell viability (NPI; 0 = phenylarsine oxide control, 1 = DMSO control) (fraction of DMSO control); NCI-H1944 is a non-small cell lung cancer line; higher = more viable cells (less compound toxicity). The note with it: 6 days.
The mark [1] stands for this setting: glucocorticoid arm: hydrocortisone 2.75 uM co-treatment, compound 1 µM.
The mark [2] stands for this setting: glucocorticoid arm: hydrocortisone 2.75 uM co-treatment, compound 5 µM.
The mark [3] stands for this setting: glucocorticoid arm: hydrocortisone 2.75 uM pre-treated 2 days and continued, compound 1 µM.
Where [4] appears, read: glucocorticoid arm: hydrocortisone 2.75 uM pre-treated 2 days and continued, compound 5 µM.
Where [5] appears, read: glucocorticoid arm: vehicle, compound 1 µM.
Setting [6] is: glucocorticoid arm: vehicle, compound 5 µM.

Structures can show the parent of a compound that is named as a salt. ± gives the standard deviation of the averaged measurements. Whole data set: some 1,900 compounds, median “normalised cell viability (NPI; 0 = phenylarsine oxide control, 1 = DMSO control)” near 1, cut for the lowest 2% near 0.039. Some of the results follow.
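Note: CTB read-out in 384-well plates, mean of triplicate wells, normalised per plate against 1 µM phenylarsine oxide and 0.1% DMSO, compounds added 24 h after seeding.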

On to `COCCOC(=O)C1=C(C)NC(C)=C(C(=O)OC/C=C/c2ccccc2)C1c1cccc([N+](=O)[O-])c1` (stereo not given) [Cilnidipine], for which the normalised cell viability is, setting by setting: under setting [1], 0.985 ± 0.02; under setting [2], 0.926 ± 0.018; under setting [3], 0.9927 ± 0.0081; under setting [4], 1.01 ± 0.02; under setting [5], 0.973 ± 0.001; under setting [6], 0.996 ± 0.001.
In the case of `Cc1cc([C@@H](C)Nc2ccccc2C(=O)O)c2nc(N3CCOCC3)cc(=O)n2c1`, the normalised cell viability runs as follows: under setting [1], 0.878 ± 0.043; under setting [2], 0.764 ± 0.062; under setting [3], 0.879 ± 0.023; under setting [4], 0.791 ± 0.03; under setting [5], 0.9667 ± 0.0091; under setting [6], 0.899 ± 0.035.
Consider `CCn1nc(C(=O)O)c(=O)c2cc3c(cc21)OCO3` [Cinoxacin], for which the normalised cell viability came out at 1.003 ± 0.0058 under setting [1]; 1.017 ± 0.0058 under setting [2]; 1.017 ± 0.0058 under setting [3]; 1.003 ± 0.0099 under setting [4]; 1 ± 0.012 under setting [5]; 1.01 ± 0.011 under setting [6].
As to `N=C(N)SCCc1c[nH]cn1` [Imetit dihydrobromide], the normalised cell viability is, setting by setting: under setting [1], 0.992 ± 0.0036; under setting [2], 0.989 ± 0.027; under setting [3], 0.994 ± 0.0044; under setting [4], 1.01 ± 0.093; under setting [5], 0.9897 ± 0.0068; under setting [6], 1 ± 0.0089.
In the case of `Cc1cnc(NC(=O)C2=C(O)c3ccccc3S(=O)(=O)N2C)s1` [Meloxicam sodium], the normalised cell viability is 1.01 under setting [1]; 0.999 ± 0.032 under setting [2]; 1.01 ± 0.018 under setting [3]; 1.01 ± 0.042 under setting [4]; 1.013 ± 0.0058 under setting [5]; 1.023 ± 0.0058 under setting [6].
As for `CC(C)NCC(O)COc1ccc(CC(N)=O)cc1` (racemic) [(±)-Atenolol], the normalised cell viability was determined as 0.987 ± 0.007 under setting [1]; 1.001 ± 0.0085 under setting [2]; 1.003 ± 0.0064 under setting [3]; 1.02 ± 0.021 under setting [4]; 1.005 ± 0.0092 under setting [5]; 1.01 under setting [6].
Consider `O=C(O)CCCc1ccccc1` [Sodium Phenylbutyrate], for which the normalised cell viability under setting [1] worked out at 0.9903 ± 0.0049; the normalised cell viability under setting [2] was 1.02 ± 0.011; the normalised cell viability under setting [3] came out at 1.007 ± 0.0058; the normalised cell viability under setting [4] came to 1.01 ± 0.035; the normalised cell viability under setting [5] was determined as 1.003 ± 0.0058; the normalised cell viability under setting [6] was 1.007 ± 0.0058.
For `O=C(O)CCCc1ccccc1` [Phenylbutyrate·Na], the normalised cell viability under setting [1] stood at 1.02 ± 0.021; the normalised cell viability under setting [2] was determined as 1.04 ± 0.015; the normalised cell viability under setting [3] stood at 1.01 ± 0.011; the normalised cell viability under setting [4] was 1.04 ± 0.015; the normalised cell viability under setting [5] came out at 1.005 ± 0.0092; the normalised cell viability under setting [6] is 1.02 ± 0.015.
Take `COc1cc(NS(C)(=O)=O)ccc1Nc1c2ccccc2nc2ccccc12` [Amsacrine hydrochloride]: the normalised cell viability under setting [1] was 0.714 ± 0.011; the normalised cell viability under setting [2] was 0.143 ± 0.029; the normalised cell viability under setting [3] is 1.017 ± 0.0058; the normalised cell viability under setting [4] came to 0.596 ± 0.12; the normalised cell viability under setting [5] turned out to be 0.427 ± 0.018; the normalised cell viability under setting [6] was found to be 0.0435 ± 0.0037.
For the compound `FC(F)c1nc2ccccc2n1-c1nc(N2CCOCC2)nc(N2CCOCC2)n1`, the normalised cell viability runs as follows: under setting [1], 0.649 ± 0.029; under setting [2], 0.627 ± 0.013; under setting [3], 0.603 ± 0.038; under setting [4], 0.702 ± 0.054; under setting [5], 0.691 ± 0.048; under setting [6], 0.831 ± 0.028.
Regarding `CN(C)c1ccc(/C=C2/C(=O)Nc3ccccc32)cc1`, the normalised cell viability runs as follows: under setting [1], 0.99733 ± 0.00058; under setting [2], 1.01 ± 0.014; under setting [3], 1.03 ± 0.021; under setting [4], 1.03 ± 0.02; under setting [5], 0.9937 ± 0.0035; under setting [6], 0.9903 ± 0.0055.
Take `Nc1nc2[nH]c(=O)cnc2c(=O)[nH]1` [Isoxanthopterin]: the normalised cell viability under setting [1] came to 0.995 ± 0.013; the normalised cell viability under setting [2] turned out to be 1.02 ± 0.029; the normalised cell viability under setting [3] worked out at 0.996 ± 0.016; the normalised cell viability under setting [4] turned out to be 1.04 ± 0.066; the normalised cell viability under setting [5] worked out at 0.9957 ± 0.0038; the normalised cell viability under setting [6] was found to be 1 ± 0.015.
On to `CC(C)(C)[C@]1(O)CCN2C[C@H]3c4ccccc4CCc4cccc(c43)[C@@H]2C1` (racemic) [(±)-Butaclamol hydrochloride], for which the normalised cell viability under setting [1] is 0.9893 ± 0.0032; the normalised cell viability under setting [2] was found to be 0.932 ± 0.018; the normalised cell viability under setting [3] worked out at 0.858 ± 0.22; the normalised cell viability under setting [4] was 0.999 ± 0.0014; the normalised cell viability under setting [5] came to 0.968 ± 0.006; the normalised cell viability under setting [6] was 0.9723 ± 0.0031.
As for `C=CC(=O)Nc1ccc2ncnc(Nc3cccc(Br)c3)c2c1`, the normalised cell viability was 0.892 ± 0.019 under setting [1]; 0.8703 ± 0.0015 under setting [2]; 0.848 ± 0.0092 under setting [3]; 0.906 ± 0.038 under setting [4]; 0.826 ± 0.032 under setting [5]; 0.697 ± 0.021 under setting [6].
Consider `CN1CCN(CCOc2cc(OC3CCOCC3)c3c(Nc4c(Cl)ccc5c4OCO5)ncnc3c2)CC1` [Saracatinib (AZD0530)], for which the normalised cell viability runs as follows: under setting [1], 0.809 ± 0.039; under setting [2], 0.632 ± 0.02; under setting [3], 0.78 ± 0.025; under setting [4], 0.692 ± 0.043; under setting [5], 0.8173 ± 0.0045; under setting [6], 0.577 ± 0.027.
For the compound `Nc1ccc(S(=O)(=O)Nc2ccnn2-c2ccccc2)cc1` [Sulfaphenazole], the normalised cell viability was 1.001 ± 0.0085 under setting [1]; 1.01 ± 0.01 under setting [2]; 0.877 ± 0.22 under setting [3]; 1 ± 0.015 under setting [4]; 0.9927 ± 0.007 under setting [5]; 0.9893 ± 0.006 under setting [6].
Regarding `NCCNC(=O)c1ncsc1-c1cccc(F)c1` [Ro 41-1049 hydrochloride], the normalised cell viability runs as follows: under setting [1], 1.01 ± 0.011; under setting [2], 1.01 ± 0.011; under setting [3], 1.01 ± 0.029; under setting [4], 1.02 ± 0.016; under setting [5], 0.996 ± 0.0035; under setting [6], 0.996 ± 0.0069.
In the case of `COc1ccccc1N1CCN(CCCCNS(=O)(=O)c2cccc3c(N(C)C)cccc23)CC1`, the normalised cell viability is, setting by setting: under setting [1], 0.99 ± 0.0027; under setting [2], 0.794 ± 0.029; under setting [3], 1 ± 0.023; under setting [4], 0.9483 ± 0.0032; under setting [5], 0.9867 ± 0.0045; under setting [6], 0.99 ± 0.0061.
Take `O=C(O)C1=CCCNC1` [Guvacine hydrochloride]: the normalised cell viability is 1.006 ± 0.0075 under setting [1]; 1.013 ± 0.0058 under setting [2]; 1.01 ± 0.015 under setting [3]; 1.01 ± 0.023 under setting [4]; 0.991 ± 0.0017 under setting [5]; 0.992 ± 0.0066 under setting [6].
For the compound `Nc1ncnc2c1nc(Sc1ccc(Cl)cc1)n2C1OC2COP(=O)(O)O[C@@H]2[C@@H]1O` (stereo not given in full) [8-(4-Chlorophenylthio)-cAMP sodium], the normalised cell viability worked out at 1 ± 0.013 under setting [1]; 1.01 ± 0.015 under setting [2]; 0.9937 ± 0.0055 under setting [3]; 1 ± 0.011 under setting [4]; 0.977 ± 0.01 under setting [5]; 0.9847 ± 0.0025 under setting [6].
As to `O=C1CC2(CCCC2)CC(=O)N1CCCCN1CCN(c2ncccn2)CC1` [Buspirone hydrochloride], the normalised cell viability was found to be 1 ± 0.013 under setting [1]; 1.02 ± 0.017 under setting [2]; 1.004 ± 0.01 under setting [3]; 1.03 ± 0.028 under setting [4]; 0.9927 ± 0.0067 under setting [5]; 0.9993 ± 0.0011 under setting [6].
Consider `Cc1cc(C)c(/C=C2\C(=O)Nc3ccccc32)[nH]1`, for which the normalised cell viability reads like this: under setting [1], 1.06 ± 0.01; under setting [2], 1.09 ± 0.015; under setting [3], 1.07 ± 0.044; under setting [4], 1.12 ± 0.017; under setting [5], 1.03; under setting [6], 1.03 ± 0.011.
`Cc1cc(C)c(/C=C2\C(=O)Nc3ccccc32)[nH]1` [Semaxanib (SU5416)]: the normalised cell viability is, setting by setting: under setting [1], 1.09 ± 0.011; under setting [2], 1.15 ± 0.046; under setting [3], 1.09 ± 0.011; under setting [4], 1.11 ± 0.017; under setting [5], 1.023 ± 0.0058; under setting [6], 1.027 ± 0.0058.
As for `CC(C)c1cc(-c2ccc(F)c3ccccc23)nc(N)n1`, the normalised cell viability is, setting by setting: under setting [1], 0.9813 ± 0.0081; under setting [2], 0.9787 ± 0.005; under setting [3], 0.991 ± 0.018; under setting [4], 0.993 ± 0.013; under setting [5], 0.984 ± 0.025; under setting [6], 1.001 ± 0.0079.
Turning to `O=C(NOC[C@H](O)CO)c1ccc(F)c(F)c1Nc1ccc(I)cc1F`, the normalised cell viability is 0.621 ± 0.028 under setting [1]; 0.517 ± 0.034 under setting [2]; 0.711 ± 0.019 under setting [3]; 0.668 ± 0.047 under setting [4]; 0.418 ± 0.0087 under setting [5]; 0.259 ± 0.025 under setting [6].
